# Measurements as given in the supplement of paper PMC11417369.
# ± gives the standard deviation of the averaged measurements. Some of the results follow.
# Tested on: PfAP2-EXP AP2 domain (GST-tagged)
# Test: gcPBM binding intensity (ln(normalized median fluorescence intensity)); higher = stronger DNA binding
# Method in brief: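 Binding intensity is the highest Masliner-normalised natural-log median intensity over replicate spots in either probe orientation. To obtain it, GST-tagged P. falciparum DNA-binding domains made in E. coli were incubated for 1 h on an Agilent 4 × 180k array of primer-extended double-stranded 36-bp intergenic genomic probes plus negative controls. Detection used Alexa488 anti-GST antibody with scanning at 488 nm.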
row,Sequence,gcPBM binding intensity (ln)
1,CAAAAATACATTATAATAATATGCACAATAATAAAT [XGTACX_negctrl_site263],8.93 ± 0.11
2,GATCTATATATCATTACACACTTGAATTACTTAAAA [CACACA_site21],8.49 ± 0.36
3,TTATGCATAAAAGGTGGTACTCCGTATATACATTCT [XGTACX_site4354],8.87 ± 0.4
4,AACTATAAAAGTTTTACACACTGTTTTTAAATAATG [CACACA_site7686],8.31 ± 0.45
5,TATTTATTTATAAATGCATGTCGCTCTTTTTATTAC [TGCATGCA_site626],8.86 ± 0.38
6,ATATATATATATATGTGTACATATAAGATAGAAGAA [XGTACX_site3198],10.2 ± 0.35
7,ATTATTATAGATATAACACACATAATTACATACTTA [CACACA_site6837],8.46 ± 0.23
8,TCCATAAATAATTGTAGTACACATACTATGTGACAT [XGTACX_site7268],8.56 ± 0.33
9,AAAAGTAAAAAAAGCACACACGAAAAAAAATAAAAA [CACACA_site5264],8.81 ± 0.59
10,TATTAAAAAAAAAAATAAAAAAATAAAATAAAATAA [CACACA_negctrl_site580],8.25 ± 0.45
11,ATAATATTTTAGAGCAGTACACTTTTATATTTATTG [XGTACX_site5728],8.54 ± 0.34
12,AGAGGAAAAATAAAAGGAAAAAAGAAAATAATATTG [CACACA_negctrl_site852],8.69 ± 0.57
13,ATATATTACAATATATGTACTTAATTTGCTTAAATA [XGTACX_site7912],8.18 ± 0.32
14,AAAATAAATATTACATGTACATATATATATATATAT [XGTACX_site8492],10.1 ± 0.44
15,TAAAACAGAATGAGGAGTACAAAAAGAAGAAAAGGG [XGTACX_site1246],9.06 ± 0.45
16,AAAAAAACAACATGCACACGCACACCCAAAAAAAGC [CACACA_site72],8.96 ± 0.42
17,ATCATTTTTAATAAATGTACAAGTTTTAAAAAAAAA [XGTACX_site7340],8.2 ± 0.47
18,GTAATCCACAAACACACACACATACACATATATATA [CACACA_site2728],8.78 ± 0.34
19,GTGTATTTTGTGCGCACACACATGCAAAAAGAAATA [CACACA_site6660],9.21 ± 0.31
20,TACACATGTTTAAAATGTACGTTTTATAACACACAC [XGTACX_site8229],8.88 ± 0.31
21,GGTAGGTGAATATATACACACATATATTATATATAT [CACACA_site1984],8.66 ± 0.18
22,TTTTACAAGTATTGATAAATAAGAAATATATAAAAT [CACACA_negctrl_site529],8.34 ± 0.4
23,AAAAAAAATTAAGCATGTATAAATATATATATATAT [CACACA_negctrl_site1540],10.1 ± 0.16

row,Sequence,gcPBM binding intensity (ln)
1,ATTTAATTTGTTCTTACACACACATATATATATATT [CACACA_site8310],9.03 ± 0.56
2,TCATACGAAATATAAACACACATACAATAAATAAAT [CACACA_site5156],8.78 ± 0.44
3,ATAATATAAATACAAACACACAATTGCGTCCACATT [CACACA_site5039],8.82 ± 0.38
4,ATTATAACCATATACACACCCATATAAATAAATATA [CACACA_site6926],8.71 ± 0.65
5,CGTTTTAATAAGATCACACATATAATATATATATAT [CACACA_site5159],9.54 ± 0.43
6,GGACAAGAATAGTGCACATGCAATGTTATTTTTTAT [TGCATGCA_site450],9.03 ± 0.21
7,TATTAAATGGCCATTACATGCAATTATTTCTAATAA [TGCATGCA_site275],8.59 ± 0.35
8,ATATTAAATGTTATCACACACATAATTACTTCCATA [CACACA_site7160],8.54 ± 0.36
9,TCAAATATATAGAATACACACATGGATATAAGAAAT [CACACA_site4065],8.94 ± 0.46
10,AACGCACGAGGACACACACACATATTTATATTTATA [CACACA_site6608],8.68 ± 0.33
11,TTTTTTAACTGTATGATGTTATATTAAAAATAAAAA [GTGCAC_negctrl_site463],8.12 ± 0.46
12,ATTTATATATAATATACACACATATAATACCCATAT [CACACA_site4548],8.48 ± 0.42
13,ATATATTTTATATAATGTACATAAACCGCACACATA [XGTACX_site6061],8.71 ± 0.42
14,TTTCAAATTTAATACACACACAAGTATATATCTATC [CACACA_site7782],8.41 ± 0.36
15,TTTAATATTAGCATATGTACACAAATCACACGGAAA [XGTACX_site2473],8.96 ± 0.41
16,TATATTATGACCACCACACACCTATACACATAACAT [CACACA_site7199],8.88 ± 0.43
17,TAATCCTTTCAATATTGTACACATTTGTGTTAAGAA [XGTACX_site1275],8.76 ± 0.31
18,ATTTAAAAAAAAAAAAAAAAAAAAAAAAAAAGAAAA [CACACA_negctrl_site722],8.01 ± 0.43
19,GTATATTTTTAAAGGTGTACTTTTTTTTTTTTTTTT [XGTACX_site721],8.57 ± 0.14
20,ATATAAAACTATAATACACACATAAAATATATTATA [CACACA_site6588],8.46 ± 0.43
21,TATATAATACAACATGCACACATATATATGTGAATC [CACACA_site8794],8.99 ± 0.39
22,ATAAATATATATATAGTGCATATAAGCCACCTTCAA [GTGCAC_site9628],8.86 ± 0.014
23,TATATTTATTTATTCTGTACTGAAGACAGTTATGTA [XGTACX_site8857],8.55 ± 0.46

row,Sequence,gcPBM binding intensity (ln)
1,CGTAATAAAAACAAATGTACATGACCTGGACAGGTT [XGTACX_site6560],8.9 ± 0.36
2,AAAAAAAAAAAAAGAGTGCAAACTATGATAATTTAA,8.57 ± 0.23
3,TTACCTTTATTGTATGAACACACATAAGCTGATACA [CACACA_site9334],8.54 ± 0.45
4,ACATATGAATATAATACACACTTGTATTATTAATAT [CACACA_site8546],8.34 ± 0.4
5,AAAATTTAATATAATGCACACATAAAAAAAAAAAAA [CACACA_site7923],8.47 ± 0.45
6,CCATTTTTTTTATACGCACACGTCATACTTTTAAAA [CACACA_site4988],9.08 ± 0.24
7,TTAGTTATTAAAAAAAGTACATAAGTAGATATCATC [XGTACX_site8712],8.48 ± 0.31
8,TATATATATACATATTGTACATGTGTATATTTTTTT [XGTACX_site361],8.93 ± 0.042
9,GAATAATATGGACATACACACATATACATACATATA [CACACA_site2114],8.58 ± 0.35
10,TTATTTCATTCTTGAAGTACGTGAAAAATGAAAACA [XGTACX_site4089],8.71 ± 0.39
11,TACTAATATGATATATAAATATTGTTATATAATAAT [XGTACX_negctrl_site227],8.08 ± 0.35
12,AAAATAAAAGAAAAAAGTACAAAATCAGATTAATTA [XGTACX_site8413],8.51 ± 0.51
13,TGAATACAAATTTACGCATGTAATTTCCAGAGGGAG [TGCATGCA_site769],8.74 ± 0.37
14,AATATATGTAATATATGTACTTAATTATATTTTAAT [XGTACX_site4382],8.06 ± 0.35
15,TATAAAATATAATTAGCACACATATATAAAATATAT [CACACA_site9355],8.21 ± 0.34
16,GTAGACTGAAACCACACACACATATATATATATATT [CACACA_site605],8.66 ± 0.42
17,TAATATTTCGCACTGTGTACTGAAATATTTATATCG [XGTACX_site516],9.04 ± 0.2
18,ATAATAAGACGATAAGGTACACAAAATGTTAATATA [XGTACX_site6984],8.78 ± 0.47
19,AAAGAAAGAAAGAAAAGTACTTAAACTTTTAAAAAT [XGTACX_site8531],8.5 ± 0.58
20,ATTTCTTTTGTTATAGTGCATAATATTTATGTACGT,8.95 ± 0.24
21,AATAATAATAAAAATAAACACACATATATATGTATA [CACACA_site8928],8.44 ± 0.43
22,TAACTATCATGTATTACACACAATATTTATTATATA [CACACA_site2701],8.56 ± 0.43
23,TTAAATAAATAAATAACACACATATAAAAATAACGC [CACACA_site3266],8.78 ± 0.45

row,Sequence,gcPBM binding intensity (ln)
1,ATATTAATATATAGAAGTACTCACATGTTAATATAA [XGTACX_site7323],8.68 ± 0.35
2,AAGAAAAAAAGCAACACACGTACCAACACAATTATG [CACACA_site3133],9.05 ± 0.4
3,AAGACAAATTTTACATGTACAAATATATTACATATA [XGTACX_site7060],8.73 ± 0.46
4,TATTCAAATTTCCACATACACACCTTGTAGATATAT [CACACA_site281],8.55 ± 0.38
5,TATTTGTGGATTTTTACACACATTAATATATATATA [CACACA_site3375],9.39 ± 0.2
6,AGGAAAATTATGAATGGTACAGAATATATTAGGAGA [XGTACX_site6282],9.02 ± 0.49
7,AAACAAAATAAATATGAACACACACCGTTATGCCTT [CACACA_site8347],8.63 ± 0.42
8,GCACTAAAAAAATAAACACACAGATTTATATAATAT [CACACA_site1381],8.32 ± 0.45
9,AATAAGTTATTATTTTGTACACATAAATAATACGTT [XGTACX_site814],8.32 ± 0.3
10,AAAAAAACGTAAAAATGTACTTTTTGTATATAACCT [XGTACX_site7950],8.62 ± 0.47
11,ATATATGCATATATTTGTACACATTTTTTTACATAA [XGTACX_site4624],9.03 ± 0.49
12,AAGGAACTATAATATACACACATAAGTGTACTTATA [CACACA_site7816],8.405 ± 0.078
13,TAAAGCGACATTTGGAAAATATATATCCTAGCATTT [CACACA_negctrl_site327],8.41 ± 0.53
14,ATTCGTTATAAAATATGTACATAAATATATATATAT [XGTACX_site2819],9.82 ± 0.23
15,AAAATACACAGACACACACACATATAAATAAATATT [CACACA_site7871],8.59 ± 0.54
16,TATTCGTGCAATAGTAGTACACTTAAAAATTATTCA [XGTACX_site269],8.9 ± 0.21
17,ACATAGATGCATATCACACATAATAATATTGTCGTA [CACACA_site4819],8.53 ± 0.4
18,TTATAAAATAAACTTACACACATGAAATATTATATT [CACACA_site1945],8.1 ± 0.34
19,ATAAACTGAGTGGTTACACACAAAACCAATAATTTT [CACACA_site3478],8.42 ± 0.44
20,AGTTTCTATTTAGTGTGTACTTAAGAAAAATATCTC [XGTACX_site82],8.56 ± 0.32
